From paper PMC11995724, “Antibiotic target discovery by integrated phenotypic and activity-based profiling of electrophilic fragments” (Cell chemical biology, 2025)
The campaign covered roughly 3,200 compounds. About 75 (2%) showed an effect of 50% or more. Some of the results follow.

tested on: T1, S. aureus MSSA476; design: species or system S. aureus MSSA476 (TSB) or V. cholerae SAD30 (LB); 384-well bacterial growth screen at 25 uM, OD600 relative to DMSO control; conditions: relative growth, OD600, TSB; 25 µM; inhibitor
T1 construct: MSSA476

| Structure (SMILES) | % of control remaining |
| --- | --- |
| C=CC(=O)N1CCC(C(=O)Nc2cccc(NC(=O)C(C)C)c2)CC1 [3-F05, N-[3-(2-methylpropanamido)phenyl]-1-(prop-2-enoyl)piperidine-4-carboxamide] | 95.0805% |
| C=CC(=O)NCC1CC(CC(=O)O)CO1 (stereo not shown) [2-E03, 2-{5-[(prop-2-enamido)methyl]oxolan-3-yl}acetic acid] | 113.49% |
| N#CC(=Cc1ccco1)C(=O)NC1CCN(c2ccc(F)cc2F)C1 (stereo not shown) [9-L09, 2-cyano-N-[1-(2,4-difluorophenyl)pyrrolidin-3-yl]-3-(furan-2-yl)prop-2-enamide] | 92.2846% |
| COc1cc(C=C(C#N)C(=O)NCc2ccccc2)cc2c1OCCO2 [9-I10, N-benzyl-2-cyano-3-(8-methoxy-2,3-dihydro-1,4-benzodioxin-6-yl)prop-2-enamide] | 77.9026% |
| Cc1ccccc1C(NC(=O)CCl)c1ccccc1C [7-J04, N-[bis(2-methylphenyl)methyl]-2-chloroacetamide] | 87.2841% |
| C=CC(=O)N1CCCC(n2cc(C)cn2)C1 (stereo not shown) [3-M12, 1-[3-(4-methyl-1H-pyrazol-1-yl)piperidin-1-yl]prop-2-en-1-one] | 101.001% |
| O=C(CCl)Nc1ccc(S(=O)(=O)C(F)F)cc1 [4-N16, 2-chloro-N-(4-difluoromethanesulfonylphenyl)acetamide] | 116.627% |
| CC(Cl)C(=O)NC(C)C(=O)N1CCc2ccccc21 (stereo not shown) [7-M21, 2-chloro-N-[1-(2,3-dihydro-1H-indol-1-yl)-1-oxopropan-2-yl]propanamide] | 100.785% |
| COc1ccc2ccccc2c1C=C(C#N)C(=O)NC1CCCCC1 [8-P18, 2-cyano-N-cyclohexyl-3-(2-methoxynaphthalen-1-yl)prop-2-enamide] | 140.415% |
| C=CC(=O)NCc1cc(-c2ccco2)on1 [1-A21, N-{[5-(furan-2-yl)-1,2-oxazol-3-yl]methyl}prop-2-enamide] | 130.462% |
| O=C(CCl)N1N=C(c2ccco2)CC1c1cccc(Cl)c1 (stereo not shown) [5-M17, 2-chloro-1-[5-(3-chlorophenyl)-3-(furan-2-yl)-4,5-dihydro-1H-pyrazol-1-yl]ethan-1-one] | 81.9672% |
| O=C(CCl)NC(Cc1ccccc1)c1ccccc1F (stereo not shown) [7-N10, 2-chloro-N-[1-(2-fluorophenyl)-2-phenylethyl]acetamide] | 83.5165% |
| O=C(CCl)Nc1cc(-c2ccccc2)nn1-c1ccccc1 [4-A20, 2-chloro-N-(1,3-diphenyl-1H-pyrazol-5-yl)acetamide] | 131.11% |
| CC(Cl)C(=O)NC1CCc2cnn(C(C)C)c2C1 (stereo not shown) [7-H05, 2-chloro-N-[1-(propan-2-yl)-4,5,6,7-tetrahydro-1H-indazol-6-yl]propanamide] | 95.1334% |
| N#CC(=Cc1cccc(Cl)c1Cl)C(=O)NCCc1ccccc1 [8-J06, 2-cyano-3-(2,3-dichlorophenyl)-N-(2-phenylethyl)prop-2-enamide] | 0.6639% |
| CCOc1cc(C=C(C#N)C(=O)NC(C)C)cc(Cl)c1O [9-I13, 3-(3-chloro-5-ethoxy-4-hydroxyphenyl)-2-cyano-N-(propan-2-yl)prop-2-enamide] | 91.985% |
| Cc1cccc(C)c1NC(=O)C(C#N)=Cc1c(C)n[nH]c1C [8-O20, 2-cyano-3-(3,5-dimethyl-1H-pyrazol-4-yl)-N-(2,6-dimethylphenyl)prop-2-enamide] | 101.909% |
| Cc1cc(CN(C(=O)CCl)c2csnc2C)cs1 [5-C12, 2-chloro-N-(3-methyl-1,2-thiazol-4-yl)-N-[(5-methylthiophen-3-yl)methyl]acetamide] | 105.282% |
| Cc1nn(C)c(N2CCCN(C)CC2)c1CNC(=O)C(C)Cl (stereo not shown) [6-N17, 2-chloro-N-{[1,3-dimethyl-5-(4-methyl-1,4-diazepan-1-yl)-1H-pyrazol-4-yl]methyl}propanamide] | 115.756% |
| CC(Cl)C(=O)N1CCCCCC1 (stereo not shown) [5-F11, 1-(azepan-1-yl)-2-chloropropan-1-one] | 102.004% |
| C=CC(=O)N(CC)CC(=O)Nc1ccc2c(c1)nc1n2CCCCC1 [3-M19, N-[({1,8-diazatricyclo[7.5.0.0,2,7]tetradeca-2,4,6,8-tetraen-5-yl}carbamoyl)methyl]-N-ethylprop-2-enamide] | 115.977% |
| C=CC(=O)Nc1ccc2oc(CC(C)(C)C)nc2c1 [3-K18, N-[2-(2,2-dimethylpropyl)-1,3-benzoxazol-5-yl]prop-2-enamide] | 106.922% |

| Structure (SMILES) | % of control remaining |
| --- | --- |
| CC(Cl)C(=O)Nc1ccc(OC(F)F)c(Cl)c1 (stereo not shown) [4-F18, 2-chloro-N-[3-chloro-4-(difluoromethoxy)phenyl]propanamide] | 97.9514% |
| C=CC(=O)N1CCCC(c2nc(C)no2)C1 (stereo not shown) [2-K12, 1-[3-(3-methyl-1,2,4-oxadiazol-5-yl)piperidin-1-yl]prop-2-en-1-one] | 97.4761% |
| C=CC(=O)Nc1ccc(C(=O)N2CCCCC2c2n[nH]c(C)n2)cc1 (stereo not shown) [3-E13, N-{4-[2-(5-methyl-1H-1,2,4-triazol-3-yl)piperidine-1-carbonyl]phenyl}prop-2-enamide] | 122.943% |
| C=CC(=O)N(Cc1cc(C)cc2c(C)c(C)[nH]c12)CC1(C)COC1 [2-E07, N-[(3-methyloxetan-3-yl)methyl]-N-[(2,3,5-trimethyl-1H-indol-7-yl)methyl]prop-2-enamide] | 117.319% |
| C=CC(=O)N(Cc1cccs1)C1CCc2cnn(C(C)C)c2C1 (stereo not shown) [1-L15, N-[1-(propan-2-yl)-4,5,6,7-tetrahydro-1H-indazol-6-yl]-N-[(thiophen-2-yl)methyl]prop-2-enamide] | 140.659% |
| N#CC(=Cc1ccc(Cl)cc1Cl)C(=O)Nc1nccs1 [9-H19, 2-cyano-3-(2,4-dichlorophenyl)-N-(1,3-thiazol-2-yl)prop-2-enamide] | 102.172% |
| C=CC(=O)NC1CCC(n2c(C)ccc2C)CC1 (stereo not shown) [2-E19, N-[4-(2,5-dimethyl-1H-pyrrol-1-yl)cyclohexyl]prop-2-enamide] | 111.053% |
| C=CC(=O)Nc1nc2cc(C(F)(F)F)ccc2n1Cc1ccco1 [1-G11, N-{1-[(furan-2-yl)methyl]-5-(trifluoromethyl)-1H-1,3-benzodiazol-2-yl}prop-2-enamide] | 86.5055% |
| C=CC(=O)NC(c1ccc(F)cc1)C1CC1 (stereo not shown) [3-H20, N-[cyclopropyl(4-fluorophenyl)methyl]prop-2-enamide] | 100.305% |
| Cn1cc(C=C(C#N)C(=O)NC2CCCC2)c(-c2ccncc2)n1 [9-L16, 2-cyano-N-cyclopentyl-3-[1-methyl-3-(pyridin-4-yl)-1H-pyrazol-4-yl]prop-2-enamide] | 90.4869% |
| COc1ccc(-n2c(C)cc(C(=O)CCl)c2C)cc1 [10-I12, 2-chloro-1-[1-(4-methoxyphenyl)-2,5-dimethyl-1H-pyrrol-3-yl]ethan-1-one] | 127.813% |
| C=CC(=O)Nc1c(C)ccn2ncnc12 [2-M08, N-{7-methyl-[1,2,4]triazolo[1,5-a]pyridin-8-yl}prop-2-enamide] | 82.8547% |
| C=CC(=O)N(Cc1ccc(-n2cncn2)cc1)C1CC1 [3-J11, N-cyclopropyl-N-{[4-(1H-1,2,4-triazol-1-yl)phenyl]methyl}prop-2-enamide] | 116.326% |
| C=CC(=O)Nc1c(C)cccc1SCC(=O)N(C)C [1-E13, N-(2-{[(dimethylcarbamoyl)methyl]sulfanyl}-6-methylphenyl)prop-2-enamide] | 79.8242% |
| CC(C)NC(=O)C(C#N)=Cc1ccc2c(c1)OCCO2 [9-E11, 2-cyano-3-(2,3-dihydro-1,4-benzodioxin-6-yl)-N-(propan-2-yl)prop-2-enamide] | 106.367% |
| CC(Cl)C(=O)c1ccc2c(c1)NC(=O)CO2 (stereo not shown) [10-P12, 6-(2-chloropropanoyl)-3,4-dihydro-2H-1,4-benzoxazin-3-one] | 104.375% |
| CN(C)c1ccc(C=C(C#N)C(N)=O)cc1 [9-O04, 2-cyano-3-[4-(dimethylamino)phenyl]prop-2-enamide] | 127.64% |
| O=C(CCl)Nc1nnc(-c2ccccc2Cl)s1 [6-K17, 2-chloro-N-[5-(2-chlorophenyl)-1,3,4-thiadiazol-2-yl]acetamide] | 97.3171% |
| C=CC(=O)N1CCOC2(CCS(=O)(=O)C2)C1 (stereo not shown) [2-C06, 9-(prop-2-enoyl)-6-oxa-2lambda6-thia-9-azaspiro[4.5]decane-2,2-dione] | 106.876% |
| C=CC(=O)NCc1ccc(C(=O)N2CCC(C#N)CC2)cc1 [3-P05, N-{[4-(4-cyanopiperidine-1-carbonyl)phenyl]methyl}prop-2-enamide] | 86.7218% |
| COc1ccccc1NC(=O)C(C#N)=Cc1ccccc1F [8-E11, 2-cyano-3-(2-fluorophenyl)-N-(2-methoxyphenyl)prop-2-enamide] | 129.793% |
